Measurements: article PMC6212790
Some of the results follow. At the low end of the ranking the order means little.

Molecular target: T1, GST-Rok-C97-191 (UniProt O34857)
T1 sequence: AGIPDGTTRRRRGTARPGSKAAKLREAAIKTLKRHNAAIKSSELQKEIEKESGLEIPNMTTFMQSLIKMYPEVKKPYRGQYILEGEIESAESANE
Experiment: protein binding microarray;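 also: rank score from −0.5 (least bound) to 0.5 (best bound)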
Settings: Rok is a gene silencer of Bacillus subtilis; high values mean tight binding; most listed sequences are background and not binding sites; double strand, one strand shown

Sequence | binding signal [E-score]
CGGCCCCA | -0.242
AAACGCAA | 0.0403
AAGTTCTA | 0.223
CCAGGGTC | -0.226
CCCAAGGA | -0.259
AAAGCCCT | -0.169
GTGAAAGA | 0.0757
AGGAGGGA | -0.173
TCCGATAA | 0.061
GGACCCTA | -0.149
TCGAAACA | -0.0654
ACCGTCTG | 0.0881
CTAGGGCC | -0.179
CACACGCC | -0.0594
TAATATGA | 0.241
ATTATTAC | 0.387
AGCTCTGA | -0.234
CCGCATTA | 0.0357
AGAAATTG | 0.139
CGTAGACA | -0.179
AGCCGACG | -0.123
AGCACGTA | -0.011
AGACTTGG | -0.0428
CTAGTCAG | -0.0101
GGGACTTA | 0.116

Sequence | binding signal [E-score]
TATTGGCA | 0.0968
CTTCACAA | 0.0794
CAAGAGCG | -0.277
AACTGTGA | 0.226
CCCTCGGA | -0.173
GGGGCAGA | -0.413
CCGTGCTA | -0.0821
ACGCCAGT | -0.157
CAGTCGAC | -0.196
AGTCCTCA | -0.05
GGACACAA | -0.187
ACCGAACC | -0.168
TCCGCGCA | -0.244
GAATTATA | 0.24
CCACCGAG | -0.116
AACCTAGG | 0.0344
ACGGGAAC | -0.165
GAAGGTCC | -0.275
ATAAAGAA | -0.0542
ACAGCTTA | -0.0692
GCTTGAAC | -0.0848
GCCTAGCC | -0.224
CGCCACAA | -0.173
CATGTGCC | -0.0705
CACCGGTG | -0.236

Sequence | binding signal [E-score]
GAGGGATA | 0.098
ATCCCAGG | 0.00674
GATTCTCC | 0.133
ACTCTAAA | -0.0436
ATTAGCCC | -0.092
GTCAAAAC | -0.0712
CGTGTTAG | -0.0851
ACCGGTTC | -0.187
AATTCGGG | 0.0614
AGGTGGTC | -0.297
CCCCGACC | -0.359
GGACATCA | -0.269
AATTTGAG | -0.0738
CGTCCTGC | -0.233
CCACATTA | 0.153
GCAGCCCC | -0.358
GCCGATAA | -0.00219
ACACCGCC | -0.226
GTATCGTA | 0.268
GCAGGATA | -0.0502
CCAAGGAA | -0.261
CAGGTATG | 0.245
ACCCGATA | 0.234
AGGTCGAC | 0.159
CGCGGTAA | -0.116

Sequence | binding signal [E-score]
ATCCGGGC | -0.21
AATGACCA | -0.0283
ACATTCGC | 0.0672
AACAGCTC | 0.087
CGAGACAC | -0.109
CGGTGCCC | -0.343
GTATTAGA | 0.171
ATCTGGCG | -0.263
CGGGCGAG | -0.181
CGCAAGAA | 0.0789
GGCCCTAC | -0.257
CTAATCCC | 0.0176
CCGCATGC | -0.158
ACTCTTAT | -0.0684
ACTAAAGC | 0.0152
CAGATATG | 0.0709
CCCTAACC | -0.374
GGACTGGA | -0.0768
AGCGAGCC | -0.0824
CGGAATAG | 0.174
CTGCCACC | -0.301
TGCAAAAA | 0.087
ACGGACAG | -0.198
GACGGGCA | -0.132
CCACTCCA | -0.233

Sequence | binding signal [E-score]
ATTAGCTC | 0.228
CCTGGGCG | -0.328
ACCGGTTG | -0.0424
TGCAACCA | 0.021
AGAGAGCC | -0.129
GCTCCCTA | -0.23
AGAGGCAA | -0.195
CAACGGAG | -0.219
TGATATAA | 0.309
ATGAATTG | 0.0684
ATTAGTTC | 0.0713
TCGGGTAA | 0.0879
CGTTTGGC | -0.0792
GTTTCTAA | -0.0431
ATACCCTA | 0.103
GAGACCTC | -0.221
CTGCCATA | -0.135
GCAGTAGC | -0.0623
GGTCCGTA | -0.112
AAAGCTGC | 0.152
ATGGTGAG | -0.00212
ACAGTCGG | 0.0333
CCAATCTC | 0.219
ATGTCTTC | -0.176
CTCTGAGC | -0.262

Sequence | binding signal [E-score]
GAAAGACC | -0.129
CCCGAACA | -0.192
AAGCTAAA | 0.0289
CACCAGCG | -0.228
ACTATGAC | 0.0601
AAGGAATA | -0.0463
GAGACGCC | -0.287
ATATCAAT | 0.264
ATATAACA | 0.221
GAACTGAC | -0.0807
CAATACTG | -0.0233
AGCCAAAC | 0.155
CTGAGACA | -0.182
ATAGGTAC | 0.257
CCGCAACG | -0.0543
ACAGCGTC | -0.208
CACAAACG | 0.00653
ATCCCGCC | -0.0295
AAGTAATG | 0.0881
AGGGGGGG | -0.315
AGTCCCAC | -0.00639
CAACCCCC | -0.324
AACAGTGC | -0.0869
CACTGTGG | -0.0766
CTATCTAA | 0.282

Sequence | binding signal [E-score]
ACGAGAGA | 0.022
AGGGCTAG | -0.212
ACCGCGAT | -0.0202
ATCTAGCA | 0.309
CAGGTACG | -0.0152
AACGTCAG | -0.21
CTAACACA | -0.0411
CGAAAACG | -0.121
AGGCGCAG | -0.195
CGTTGGAG | -0.19
CCGAAGCA | 0.0191
ATCTTTGG | -0.074
ACATATCG | 0.182
CCTAAGAG | -0.054
CCATTCAC | -0.0403
CGGTTTGA | -0.0671
GCAGTTTA | 0.113
GAGCCCTC | -0.274
AATCGGCG | -0.0943
AGTCAACG | -0.129
ACCTTTCT | 0.103
GTACGCTA | 0.138
ATCCATTG | -0.0528
AGCGTGGG | -0.118
CCAAAACG | -0.249

Sequence | binding signal [E-score]
CTAGGAGC | 0.201
CACCGCCG | -0.124
ATAGGTAA | 0.225
AACGCGAG | -0.0251
CAACAAGA | -0.163
AAGGAACT | -0.0515
ATTTTCCC | -0.00582
AGATTCTG | 0.199
CGAAATGC | -0.0626
AATGCACC | -0.124
CAGGACTA | -0.0749
CCATGACG | -0.0758
CATGACAG | -0.0741
ACCGCGGG | -0.144
AAGTAGTA | 0.358
GTTAGGGA | -0.112
ATTGCGCA | 0.00228
AGTGGACG | -0.198
TCTATTCA | 0.0688
CCGTATGA | -0.05
CGTCTATC | -0.0931
AAGGACGG | -0.164
CGAGCTGA | -0.215
ATTTGTCG | 0.134
TCCCAGCA | -0.0663

Sequence | binding signal [E-score]
CGAGGGAC | -0.305
ATGGGAGC | -0.204
CCAAGGTA | 0.0964
AGCTGGAC | -0.239
CTTTCTAC | 0.447
ACATCTGC | 0.135
CACGCATG | -0.16
AAAGAAAC | -0.0427
CCCATCCC | -0.206
CTAGGGGC | -0.373
CCACTCGA | -0.107
CCAGTAGG | 0.0649
AGCCTCTA | 0.0171
AGCTGCTG | -0.0925
GACAGATA | 0.153
CAAAATGA | 0.0999
AATATCAA | 0.244
ACTGCCGA | -0.178
CCGCCCCC | -0.236
CCTGGTCA | -0.102
CGGTTTCA | -0.131
CAACTGCG | -0.192
CACCTCGC | -0.148
ATCGGCAA | -0.182
TCGCACCA | -0.122

Sequence | binding signal [E-score]
CACAGCGA | -0.129
CTCCTCGA | -0.0979
TAGTCATA | 0.148
CCTACAGA | 0.064
GTCCCTGA | -0.188
TTATGGAA | 0.0655
ACGCAGAA | -0.108
TCGTTAGA | 0.00302
CCCTTGAC | -0.132
ATGACGGA | 0.0909
GGATGGCC | -0.372
ACGTGCCA | 0.00179
CTGGCGCA | -0.0881
GCTCTTAC | -0.0333
AAGTAATC | 0.0184
GATATGCA | 0.136
AGCGTCAA | -0.0674
CGGGGTGA | -0.0577
TACCGGAA | -0.0058
CGCAGCTC | -0.193
CTAGCTGA | 0.0625
AGTCGTGC | 0.0618
TGGATCAA | -0.0679
GAGACACA | -0.125
AAATAGGG | -0.0549

Sequence | binding signal [E-score]
TAATATAA | 0.309
GGAAGTAC | -0.0337
AGGTCTTA | -0.23
ATCTCGCC | 0.0971
AAATACGT | 0.343
AGCCAAAT | 0.0358
ACTATTCA | 0.221
CTCGGTGA | -0.118
TATCATGA | 0.19
GCGGCGTA | -0.0352
GGGCAAAA | 0.0699
CCGGTATC | 0.181
AAACCGCA | -0.108
AAATATTC | 0.219
ACGTCCGG | -0.0313
AAGACTAA | 0.132
GAGCCATC | -0.0365
ACTCTCGC | -0.0559
TATTCTGA | -0.0202
ATCCAATG | 0.00844
CGTCGCAA | -0.128
CCGCTTGA | -0.0994
GCGGAGGA | -0.229
CCACGCAG | -0.198
AATACACG | 0.106

Sequence | binding signal [E-score]
ACAGGTGG | -0.244
AGTCAGAT | 0.0278
CTTCACAC | -0.0247
AATCATTG | 0.143
AAGCGTCC | -0.231
TCCTTACA | -0.0881
CGTGTCTC | -0.0102
GCCTTCCC | -0.323
CGCTACGA | 0.0242
AAGAATCG | 0.0833
GGGAGCTA | -0.155
GGACCAAC | -0.163
CACTGCTA | 0.0112
CATACTTC | 0.174
CAGTCTCG | -0.194
ATGTCAAT | 0.0306
TGGTGAAA | -0.095
CAGGTGCG | -0.233
TCGATTAA | 0.125
GCGAATAC | 0.0221
AGACACGC | 0.00429
CGCAACGC | -0.111
AATTATGC | 0.215
GGATTCAA | -0.0564
GATGGCGA | 0.0644

Sequence | binding signal [E-score]
CGATTTAC | 0.209
TGAAGACA | -0.146
TACCCATA | 0.234
CACTATCG | 0.215
AGAGACCA | 0.00222
GGATTGAA | -0.0309
TGCCGTAA | -0.0714
CCGTCTCC | -0.209
CCCCTGTC | -0.302
CGCCCGTC | -0.275
CTTTACTA | 0.0223
ATGCATTC | 0.0561
GCTTTAAA | 0.00559
GAGGGGAA | -0.255
GAAATACC | 0.289
CGGTTCCA | 0.0554
AAGTTATT | 0.259
GATCGCGC | -0.0683
GTGTTATA | 0.133
TACACGGA | -0.139
AAGACCGG | -0.0043
GGCACCTA | -0.0477
CCGAAAGC | -0.213
ATGATCGC | 0.142
AGCCGATA | 0.00367

Sequence | binding signal [E-score]
TACGTTAA | 0.102
ACATCAGT | 0.203
CCGGGACC | -0.414
CAGGGGGC | -0.372
ACCCGTAT | -0.0353
CTCATGCC | -0.211
AACATTTA | 0.0536
CTCTACAG | -0.111
CCCACGAC | -0.32
CACTGAAG | -0.17
ACCCTCCT | -0.148
CCTGACGA | -0.133
ATTAGCAA | 0.0253
AAGAATCT | 0.0962
CCCCAGCC | -0.272
AGTGTATA | 0.294
ACGTTCCT | 0.0588
CGCAAATC | 0.159
CGGACCTA | -0.165
